Source: PubChem BioAssay AID504332 (National Center for Advancing Translational Sciences (NCATS), 2011)
Where “and” joins values, the source holds several entries; their conditions need not be identical. Equal entries are not always repeated. Hit rate of the full screen: of about 350,000 compounds, about 31,000 (8.9%) were called active. The inconclusive results got no clear call from the source; some entries with a clear call stand among them for comparison. Calls come from the whole dose curve; as a rule, active = well fitted inhibition curve with a large enough effect; inconclusive = small, poorly fitted or top-dose-only effect; inactive = no such curve, though single readings can be large or run the other way. Potencies beside an inconclusive call are fits to weak or partial responses and may not hold up.

Each compound was assayed against Histone-lysine N-methyltransferase EHMT2 (Homo sapiens) (UniProt Q96KQ7) (assay: qHTS Assay for Inhibitors of Histone Lysine Methyltransferase G9a). Settings: G9a H3K9 monomethylation, AlphaScreen, 2 h; activity, negative = inhibition: at 59 µM (top of the series) unless noted.
Chain of UniProt Q96KQ7 (Q96KQ7 whole entry, looked up): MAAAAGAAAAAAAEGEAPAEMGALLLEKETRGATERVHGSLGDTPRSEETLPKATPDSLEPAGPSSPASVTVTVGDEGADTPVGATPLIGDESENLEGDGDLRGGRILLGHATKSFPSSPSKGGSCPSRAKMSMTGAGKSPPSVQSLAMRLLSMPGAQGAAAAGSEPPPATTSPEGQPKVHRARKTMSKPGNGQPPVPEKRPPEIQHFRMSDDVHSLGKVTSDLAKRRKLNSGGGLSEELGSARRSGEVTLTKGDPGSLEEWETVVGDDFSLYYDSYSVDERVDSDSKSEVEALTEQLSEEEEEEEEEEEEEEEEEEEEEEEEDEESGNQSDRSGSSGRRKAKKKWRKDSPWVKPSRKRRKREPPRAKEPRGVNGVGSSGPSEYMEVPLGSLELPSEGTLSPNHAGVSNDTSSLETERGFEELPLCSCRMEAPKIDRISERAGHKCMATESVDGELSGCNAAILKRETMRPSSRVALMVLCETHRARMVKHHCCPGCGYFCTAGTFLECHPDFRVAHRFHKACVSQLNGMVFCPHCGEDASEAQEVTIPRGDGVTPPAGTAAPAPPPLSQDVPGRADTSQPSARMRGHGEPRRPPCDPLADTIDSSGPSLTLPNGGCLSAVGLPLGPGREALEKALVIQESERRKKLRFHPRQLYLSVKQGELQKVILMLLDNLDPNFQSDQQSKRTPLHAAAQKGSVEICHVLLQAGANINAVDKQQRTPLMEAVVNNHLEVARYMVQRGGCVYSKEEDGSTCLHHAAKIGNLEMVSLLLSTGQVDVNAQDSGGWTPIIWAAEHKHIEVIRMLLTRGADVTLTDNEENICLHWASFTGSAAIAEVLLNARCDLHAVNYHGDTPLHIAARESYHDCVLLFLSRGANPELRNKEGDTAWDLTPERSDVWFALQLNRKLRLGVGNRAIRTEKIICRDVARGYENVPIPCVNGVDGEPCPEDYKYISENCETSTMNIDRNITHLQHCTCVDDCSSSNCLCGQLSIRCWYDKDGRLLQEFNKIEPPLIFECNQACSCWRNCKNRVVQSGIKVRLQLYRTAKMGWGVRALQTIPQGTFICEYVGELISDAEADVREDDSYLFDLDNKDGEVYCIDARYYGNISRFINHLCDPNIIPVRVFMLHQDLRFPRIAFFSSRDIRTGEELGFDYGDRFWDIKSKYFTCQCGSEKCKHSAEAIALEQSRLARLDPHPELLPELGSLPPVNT
Summary of the method: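 Quantitative HTS format: methyltransferase activity on a biotin-tagged H3K9 peptide is measured by AlphaScreen, using a rabbit anti-monomethyl-H3K9 antibody with streptavidin donor and anti-IgG acceptor beads. Final levels are 20 nM enzyme, 500 nM peptide, 20 uM SAM; 2 h RT.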
% is set by controls: 0 for no effect and ±100 for the full control effect; potency is the fitted concentration of half-maximal effect; tags give direction and shape of the fitted curve.
Note: nearly all actives have a fitted effect of over 75% in size.

Q: With `Cc1ccc(NC(=O)CN2C(=O)CCc3ccccc32)cc1C` as the compound, how does the “activity, negative = inhibition” value read?
A: inactive: -37%

Q: `Cc1ccc(S(=O)(=O)N(C)C)cc1NC(=O)c1ccc(-n2cncn2)c([N+](=O)[O-])c1` was tested. Which Potency did it give?
A: inconclusive: 14.1 µM [inhibitor, partial curve, poor fit]

Q: Which Potency does the source give for `C=CCN1C=CC(=C/C=C(/C#N)C(=O)OCC)C=C1` here?
A: inconclusive: 22.4 µM [inhibitor, single point]

Q: `Cc1ccc(S(=O)(=O)N(C)c2ccc(OCC(=O)Nc3nnc(C4CC4)s3)cc2)cc1` was tested. Which Potency did it give?
A: inconclusive: 44.7 µM [inhibitor, partial curve, poor fit]

Q: How did the Potency turn out when `CCN1C(=O)/C(=C2\SC(=S)N(CC3CCCO3)C2=O)c2ccccc21` (stereo not drawn) was run?
A: active: 3.98 µM

Q: `Cc1ccc(S(=O)(=O)N2CC(O)CC2C(=O)OCc2nc3sc(C)c(C)c3c(=O)[nH]2)cc1` (stereo not drawn) was tested. Which Potency did it give?
A: active: 3.98 µM

Q: With `CC1(C)c2ccccc2N2CC(=O)NC21/C=C/c1ccco1` (stereo not drawn) as the compound, how does the Potency read?
A: active: 31.6 µM

Q: `COc1cccc(C(NC(C)=O)c2ccc3cccnc3c2O)c1` (stereo not drawn) was tested. Which Potency did it give?
A: inconclusive: 100 µM [inhibitor, single point]

Q: `CC(NC(=O)C1CCC(C(=O)NC(C)c2ccccc2)CC1)c1ccccc1` (stereo not drawn) was tested. Which “activity, negative = inhibition” value did it give?
A: inactive: 22.6% [at 102 µM]

Q: `O=C1CC(c2ccccc2Cl)c2c(sc3c(=O)[nH]c(CCl)nc23)N1` (stereo not drawn) was tested. Which Potency did it give?
A: inconclusive: 35.5 µM [inhibitor, single point]

Q: `CCc1ccc2nc(NC(=O)Cn3cnc4ccccc4c3=O)sc2c1` was tested. Which Potency did it give?
A: inconclusive: 50.1 µM [inhibitor, partial curve]

Q: For `COc1ccccc1CCNC(=O)c1nccnc1C(=O)O`, which Potency is on record?
A: active: 35.5 µM

Q: For `CC(NC(=O)c1ccc(OC2CCN(Cc3ccccn3)CC2)cc1)c1nccs1` (stereo not drawn), which “activity, negative = inhibition” value is on record?
A: inactive: 31% [at 102 µM]

Q: Which Potency does the source give for `CC1(C)CC(=O)C(N=Nc2cc(S(=O)(=O)N3CCOCC3)ccc2Cl)=C(O)C1` here?
A: active: 50.1 µM

Q: Which Potency does the source give for `COc1ccc(N2CCN(Cc3nc4c(c(=O)[nH]c(=O)n4C)n3Cc3ccc(C)cc3)CC2)cc1` here?
A: inconclusive: 31.6 µM [inhibitor, single point]

Q: With `COc1ccccc1NC(=O)c1ccc2c(O)c(S(=O)(=O)c3ccccc3)c(=O)[nH]c2c1` as the compound, how does the Potency read?
A: inconclusive: 79.4 µM [inhibitor, single point]

Q: How did the Potency turn out when `COc1ccc2[nH]c(C)c(CCNC(=S)Nc3ccc(C)cc3)c2c1` was run?
A: inconclusive: 3.55 µM [inhibitor, full curve, poor fit]

Q: Which Potency does the source give for `O=C(NCCCn1ccnc1)c1cc(-c2ccc(Br)cc2)on1` here?
A: inconclusive: 28.2 µM [inhibitor, single point]

Q: How did the Potency turn out when `COc1ccc(C2=C(Nc3ccc(Br)c(C)c3)c3ccccc3C2=O)cc1` was run?
A: active: 2.82 µM

Q: For `CC[N+](CC)(CC)CCCCOc1ccc2c(c1)C(=O)c1cc(OCCCC[N+](CC)(CC)CC)ccc1-2`, which Potency is on record?
A: inconclusive: 22.4 µM [inhibitor, full curve, poor fit]

Q: With `CSC(=NC#N)N1CCN(c2ccc(Cl)cc2)CC1` as the compound, how does the Potency read?
A: inconclusive: 89.1 µM [inhibitor, single point]

Q: With `Cc1cccc(N2CCN(C(=O)CN3CCOc4ccccc43)CC2C)c1` (stereo not drawn) as the compound, how does the Potency read?
A: active: 50.1 µM

Q: For `CCOC(=O)N1CCN(C(=O)CSc2nc(-c3cccc(C)c3)ns2)CC1`, which Potency is on record?
A: active: 31.6 µM

Q: How did the Potency turn out when `CN(C)CCOc1nc(-c2ccccc2)nc2c1oc1ccccc12` was run?
A: inconclusive: 79.4 µM [inhibitor, partial curve, poor fit]

Q: With `COCc1cc(C)nc2sc(C(=O)N3CCCC3)c(N)c12` as the compound, how does the activity, negative = inhibition read?
A: inconclusive: -62.6% [inhibitor]

Q: Which Potency does the source give for `CCN(CC(=O)Nc1ccccc1OC)C(=O)c1cccc(-n2cccc2)c1` here?
A: active: 44.7 µM

Q: Which Potency does the source give for `COc1cc2c(cc1NC(=O)COC(=O)Cn1cnc3ccccc31)oc1ccccc12` here?
A: inconclusive: 10 µM [inhibitor, partial curve, poor fit]

Q: How did the “activity, negative = inhibition” value turn out when `CCOc1ccc(-c2cn3c(n2)sc2cc(C(=O)NCCc4ccc(OC)cc4OC)ccc23)cc1` was run?
A: inactive: 7.72%

Q: For `Cc1cccc(NC(=O)CN(CC2CCCO2)C(=O)c2cc3ccccc3o2)c1C` (stereo not drawn), which “activity, negative = inhibition” value is on record?
A: inactive: -18.5% [at 102 µM]

Q: `Cc1nn(C(C)C(=O)NC2CCC(C)CC2)c(=O)c2c1sc1ccccc12` (stereo not drawn) was tested. Which Potency did it give?
A: inconclusive: 25.1 µM [inhibitor, single point]

Q: How did the Potency turn out when `Cc1cc(C)c2c(c1)c(C)cc1nnc(SCC(=O)c3cccs3)n12` was run?
A: active: 3.16 µM

Q: `Cc1cccn2c(=O)c3cc(C(=O)NCCCN4CCOCC4)n(C)c3nc12` was tested. Which Potency did it give?
A: inconclusive: 50.1 µM [inhibitor, partial curve, poor fit]

Q: For `Cc1ccc(C(=O)NC(=S)NCc2ccco2)cc1`, which Potency is on record?
A: active: 44.7 µM

Q: `CC(=O)Nc1sc2c(c1C(c1ccccc1Cl)N1CCN(CCO)CC1)CCCC2` (stereo not drawn) was tested. Which Potency did it give?
A: inconclusive: 50.1 µM [inhibitor, partial curve]

Q: How did the Potency turn out when `Oc1cc(NCCN2CCOCC2)cc2cccnc12` was run?
A: inconclusive: 1.78 µM [inhibitor, partial curve, poor fit]

Q: How did the Potency turn out when `COc1ccc(/C=N/N2CCOCC2)cc1COc1ccc(F)cc1` was run?
A: inconclusive: 31.6 µM [inhibitor, partial curve, poor fit]

Q: Which Potency does the source give for `COc1ccc(NC2c3ccccc3C(=O)N2c2ccccn2)cc1` (stereo not drawn) here?
A: inconclusive: 50.1 µM [inhibitor, partial curve]

Q: With `O=C(NCc1ccccc1)c1nc(S(=O)(=O)Cc2ccc(F)cc2)ncc1Cl` as the compound, how does the Potency read?
A: inconclusive: 35.5 µM [inhibitor, single point]

Q: Which “activity, negative = inhibition” value does the source give for `COc1ccc(-n2nc3ccc(NC(=O)c4ccc(C#N)cc4F)cc3n2)cc1Cl` here?
A: inactive: -0.218%

Q: Which “activity, negative = inhibition” value does the source give for `N/C(=N\OC(=O)c1ccco1)c1ccc(Br)cc1` here?
A: inactive: 7.83% [at 102 µM]

Q: How did the Potency turn out when `O=C(COc1ccccc1Cl)Nc1nnc(S(=O)(=O)N2CCCC2)s1` was run?
A: inconclusive: 7.94 µM [inhibitor, full curve] and inconclusive: 79.4 µM [inhibitor, single point]

Q: With `COc1cccc2c1cc1c(=O)n(CC(=O)N3CCN(c4cccc(C(F)(F)F)c4)CC3)nc(C)n12` as the compound, how does the “activity, negative = inhibition” value read?
A: inactive: 0.0647%

Q: How did the Potency turn out when `Cc1cccn2cc(-c3c[nH]c4ccccc34)nc12` was run?
A: inconclusive: 25.1 µM [inhibitor, partial curve, poor fit]

Q: How did the Potency turn out when `Cc1cc(O)c(N)c(C)c1Cl` was run?
A: inconclusive: 2.51 µM [inhibitor, partial curve, poor fit]

Q: Which “activity, negative = inhibition” value does the source give for `Cc1ccc(C2(C(F)(F)F)NC(=O)N3CCCN=C3S2)cc1` (stereo not drawn) here?
A: inactive: -25.5% [at 102 µM]

Q: How did the Potency turn out when `O=C(CN(c1ccccc1Cl)S(=O)(=O)c1ccccc1)N/N=C/c1ccccc1C(=O)O` was run?
A: inconclusive: 12.6 µM [inhibitor, partial curve, poor fit]

Q: `CCc1ccc(C2C3=C(CC(C)(C)CC3=O)OC3=C2C(=O)CC(C)(C)C3)cc1` was tested. Which Potency did it give?
A: inconclusive: 6.31 µM [inhibitor, single point]

Q: Which Potency does the source give for `CC(=O)c1cnc(Nc2ccccc2)s1` here?
A: inconclusive: 0.447 µM [inhibitor, full curve, poor fit]

Q: How did the Potency turn out when `O=S(c1cc(Cl)cc(Cl)c1O)c1cc(Cl)cc(Cl)c1O` was run?
A: inconclusive: 1.41 µM [inhibitor, partial curve, poor fit]

Q: How did the Potency turn out when `CC(C(=O)Nc1ccccc1-c1ccccc1)N1CCCCC1` (stereo not drawn) was run?
A: active: 44.7 µM

Q: With `O=C(Oc1ccccc1)c1ccc2c(c1)C(=O)N(Cc1ccncc1)C2=O` as the compound, how does the Potency read?
A: inconclusive: 35.5 µM [inhibitor, partial curve, poor fit]

Q: For `O=C(O)c1ccccc1C(=O)N1N=C(c2ccccc2)CC1c1ccccc1O` (stereo not drawn), which Potency is on record?
A: inconclusive: 89.1 µM [inhibitor, single point]

Q: With `Cc1nn(CC(=O)NC(C)C)c(C)c1[N+](=O)[O-]` as the compound, how does the “activity, negative = inhibition” value read?
A: inactive: 9.37% [at 102 µM]

Q: For `CCS(=O)(=O)c1ccc2oc(Nc3ccccc3Cl)nc2c1`, which “activity, negative = inhibition” value is on record?
A: inactive: -7.81% [at 102 µM]

Q: `O=C(CN1C(=O)S/C(=C\c2cccs2)C1=O)Nc1ccc(O)c(C(=O)O)c1` was tested. Which Potency did it give?
A: inconclusive: 70.8 µM [inhibitor, single point]

Q: How did the activity, negative = inhibition turn out when `CCN1CC2([N+](=O)[O-])C=CC(=O)C([N+](=O)[O-])(C1)C2CC(=O)c1ccccc1` (stereo not drawn) was run?
A: inconclusive: -77.9% [inhibitor]

Q: For `Cc1ccc(S(=O)(=O)N2CCC(C(=O)Nc3ccccc3N3CCCCC3)CC2)cc1`, which Potency is on record?
A: inconclusive: 89.1 µM [inhibitor, single point]

Q: For `CCOc1ccc(NC2SC(=O)N(Cc3ccccc3)C2=O)cc1` (stereo not drawn), which Potency is on record?
A: active: 11.2 µM

Q: How did the Potency turn out when `CCOC(=O)/C(C#N)=C\c1ccc(N2CCN(C)CC2)cc1` was run?
A: inconclusive: 79.4 µM [inhibitor, single point]

Q: For `Cn1c(=N)n(CC(=O)c2ccc(F)cc2)c2ccccc21`, which “activity, negative = inhibition” value is on record?
A: inactive: -16.8% [at 102 µM]

Q: For `OCC[C@H]1C[C@H](O)[C@@H](O)[C@@]2(CCCc3ccccc3O2)O1`, which activity, negative = inhibition is on record?
A: inactive: 22.3% [at 2.33 µM]

Q: With `CC(=O)N1CCc2c(sc3c2c(=O)n(-c2ccc(F)cc2)c(=O)n3Cc2ccc(C#N)cc2)C1` as the compound, how does the “activity, negative = inhibition” value read?
A: inactive: 0.867%

Q: Which Potency does the source give for `O=C(CN1CCN(C(=O)C2CCCO2)CC1)Nc1ccc(Br)cc1` (stereo not drawn) here?
A: inconclusive: 79.4 µM [inhibitor, single point]

Q: How did the Potency turn out when `CC(C)CNc1nc(S(=O)(=O)c2ccccc2)c(Cl)s1` was run?
A: inconclusive: 0.794 µM [inhibitor, full curve, poor fit]

Q: How did the activity, negative = inhibition turn out when `CCC(C)Oc1cc(-c2ccnc(Nc3cccc(Cl)c3)n2)ccn1` (stereo not drawn) was run?
A: inactive: 3.83% [at 12.7 µM]

Q: `CCc1c(C)nc(SCC(=O)NNC(=O)c2ccco2)[nH]c1=O` was tested. Which “activity, negative = inhibition” value did it give?
A: inactive: 18.9% [at 102 µM]

Q: `O=C(Cc1c(F)cccc1Cl)Nc1cc(S(=O)(=O)N2CCCCC2)ccc1N1CCOCC1` was tested. Which activity, negative = inhibition did it give?
A: inactive: -4.02% [at 12.7 µM]

Q: For `CO[C@H]1C=CO[C@@]2(C)Oc3c(C)c(O)c4c(O)c(c5c(c4c3C2=O)NC2(CCN(CC(C)C)CC2)N=5)=NC(=O)C(C)=CC=C[C@H](C)[C@H](O)[C@@H](C)[C@@H](O)[C@@H](C)[C@H](OC(C)=O)[C@@H]1C`, which Potency is on record?
A: inconclusive: 39.8 µM [inhibitor, single point]
